From PubChem BioAssay AID652104 (National Center for Advancing Translational Sciences (NCATS), 2013)
Screen size: about 410,000 compounds; about 7,200 (1.8%) were called active. The inconclusive results got no clear call from the source; some entries with a clear call stand among them for comparison. Calls come from the whole dose curve; as a rule, active = well fitted activation curve with a large enough effect; inconclusive = small, poorly fitted or top-dose-only effect, or another doubt; inactive = no such curve, though single readings can be large or run the other way. No potency is given beside an inconclusive call; the fits are too rough. Non-standard residues stand in square brackets, D forms with d. Residues, ends and D or L forms follow the SMILES beside them. *: point of attachment. Sta = CC(C)C[C@H](N)[C@@H](O)CC(=O)O; Isovaleryl = CC(C)CC(=O)*

Test: qHTS of TDP-43 Inhibitors; note: nearly all actives have a fitted effect of over 50% in size; for growth rescue (activation): % of control where 0% means no effect
Details: TDP-43 expressing yeast growth rescue, BacTiter-Glo, 24 h; growth rescue (activation): at 46.1 µM (top of the series) unless noted
Procedure, shortened: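 Yeast expressing TDP-43 (pregrown in raffinose, seeded at OD600=0.02 in galactose medium) exposed to compounds 24 hr at 30 deg C. Growth read by BacTiter-Glo luminescence; rescue of toxicity appears as increased signal.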
Potency is the fitted concentration of half-maximal effect; tags give direction and shape of the fitted curve.

Structure (SMILES) | Potency | growth rescue (activation)
Cc1cc(=O)oc2c1c(C)nn2-c1ccc(Cl)cc1 | inconclusive [activator, partial curve, poor fit] | 
CC(=O)Oc1ccc(C(=O)Nc2ccccc2C(=O)Nc2ccc(C(=O)O)cc2)cc1 | inconclusive [activator, partial curve] | 
CCOc1cc(/C=C2\SC(=S)N(NS(=O)(=O)c3ccc(C)cc3)C2=O)ccc1O | inactive | 
CCCCOC(=O)c1sc2nc(C)cc(C)c2c1N | inconclusive [activator, partial curve, poor fit] | 
CC(C)CCNC(=O)Nc1cc(C(=O)NCc2cccc(F)c2)ccc1N1CCCC1 | inconclusive [activator, partial curve, poor fit] | 
O=C(C1CCN(S(=O)(=O)Cc2ccccc2)CC1)N1CCN(c2cccc(Cl)c2)CC1 | inconclusive [activator, partial curve] | 
O=c1c2ccccc2sc2nc(C3CCCCC3)n(Cc3ccco3)c(=O)c12 | inactive | 
CCN(CC)C(=O)C1CCCN(c2ccc([N+](=O)[O-])cc2)C1 (configuration not stated) | inconclusive [activator, single point] | 
CC(CCl)n1c(=O)c2ccccc2n1C(=O)c1ccccc1 (configuration not stated) | active: 11.2 µM | 
COCC(=O)Oc1c(S(=O)(=O)c2ccc(C)cc2)c(C)nn1C(C)(C)C | inconclusive [activator, single point] | 
Cc1ccc(NC(=O)c2cncc(Br)c2)nc1 | inactive | 
COc1ccccc1C1CCN(c2ccc([N+](=O)[O-])c(OC)c2)CC1 | inconclusive [activator, partial curve] | 
Cc1ccccc1-c1nnn(CC(=O)Nc2ccc3c(c2)OCO3)n1 | inconclusive [activator, partial curve] | 
CCCn1nc(NS(C)(=O)=O)c2cc3cccc(C)c3nc21 | active: 35.5 µM | 
CN1N=C(c2ccc(Cl)cc2)CC(c2ccc(Cl)cc2)C1=O (configuration not stated) | inconclusive [activator, single point] | 
CCC(O)(C(=O)Nc1ccccc1C(F)(F)F)c1ccccc1OC (configuration not stated) | inactive | 
O=[N+]([O-])c1cccc(CSc2ncnc3ccccc23)c1 | inconclusive [activator, single point] | 
COc1ccc(Cn2nnnc2CN2CCC(O)(c3ccc(F)cc3)CC2)cc1 | inconclusive [activator, single point] | 
Cc1cccc2c(N=Nc3ccccc3)c(O)[nH]c12 | inconclusive [activator, full curve] | 
Cc1ccc(NC(=O)C(=O)NCCc2csc3nc(-c4ccccc4C)nn23)cc1Cl | inconclusive [activator, full curve, poor fit] | 
CCCN(CCC)CCNC(=O)C1CCCN(S(=O)(=O)c2cccc3nsnc23)C1 (configuration not stated) | inactive | 

Structure (SMILES) | Potency | growth rescue (activation)
NC(=O)C1(N2CCCCC2)CCN(C(=O)c2cc(COc3c(F)cccc3F)on2)CC1 | inconclusive [activator, partial curve, poor fit] | 
COc1cccc(NC(=S)NN2C(C)CCCC2C)c1 (configuration not stated) | inconclusive [activator, partial curve] | 
Clc1ccccc1N=C1NN=C(c2cccs2)CS1 | active: 11.2 µM | 
NC(=O)C1CCN(C(=O)c2ccc(F)c(S(=O)(=O)N3CCOCC3)c2)CC1 | inactive | 
COc1ccc(OC)c(S(=O)(=O)Nc2ccc(Oc3ccccc3)cc2)c1 | inconclusive [activator, single point] | 
CCOn1c(=O)c(-c2ccc(Cl)cc2)[n+]([O-])c2ccccc21 | inconclusive [activator, single point] | 
CC(NC(=O)COC(=O)c1cccnc1Cl)C12CC3CC(CC(C3)C1)C2 (configuration not stated) | inconclusive [activator, partial curve] | 
CCOC(=O)N1CCN(C(=O)C[C@@H]2C[C@@]3(C(=O)OC)CCCCC=C3N(Cc3ccc(Cl)cc3Cl)C2=O)CC1 | active: 22.4 µM | 
COC(=O)c1ccc(Cn2c(SCC(=O)N(C)c3ccccc3)nc3ccccc32)cc1 | inconclusive [activator, single point] | 
CCOc1cc(C(=O)Nc2ccc(S(=O)(=O)Nc3cc(OC)nc(OC)n3)cc2)cc(OCC)c1OCC | inactive | 
COc1ccc(-n2c(NN)nc3sc4c(c3c2=O)CCCC4)cc1 | inconclusive [activator, single point] | 
O=[N+]([O-])c1ccc(-c2nc(Cl)c3c(n2)CCCC3)o1 | active: 7.08 µM | 
CC(C)CC(=O)N[C@H](C(=O)N[C@H](C(=O)N[C@@H](CC(C)C)[C@@H](O)CC(=O)N[C@@H](C)C(=O)N[C@@H](CC(C)C)[C@@H](O)CC(=O)O)C(C)C)C(C)C (Isovaleryl-VV[Sta]A[Sta]-OH) | inconclusive [activator, full curve, poor fit] | 
O=C(Nc1ccccc1F)c1ccccc1C(=O)Nc1ccccc1F | inconclusive [activator, single point] | 
Nc1c(-c2cccc(Cl)c2)cnn1-c1cccc(C(F)(F)F)c1 | inconclusive [activator, single point] | 
C=CCn1c(-c2ccccc2)c[nH]c1=S | inconclusive [activator, partial curve] | 
O=C(c1ccccc1)C1Oc2ccccc2C2CC(c3cccs3)=NN12 (configuration not stated) | inconclusive [activator, partial curve, poor fit] | 
O=C(Cn1cnc2nc3c(cc2c1=O)CCCC3)N1CCN(c2ccccc2)CC1 | inactive | 
COc1cc2c(cc1OC)CN(C(=O)CC1CC3CCC1C3)CC2 (configuration not stated) | inconclusive [activator, partial curve] | 
C=CCNc1nc2ccccc2nc1NS(=O)(=O)c1cccc(C)c1 | inconclusive [activator, single point] | 
CC(=O)c1cc(Cl)ccc1OCc1cccc(S(=O)(=O)N2CCOCC2)c1 |  | inconclusive: 50% [activator]
